The campaign covered roughly 310,000 compounds. About 14,000 (4.5%) showed an effect of 50% or more. Effects have a minus sign here. This is one part of the list.
Biological target: human ether-à-go-go-related gene (hERG) potassium channel (human, UniProt Q12809)
Assay: primary screen, population patch clamp on CHO cells stably expressing hERG
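Also: peak tail current of the secondary pulse compared with the same well before compound.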

Sequence of human ether-à-go-go-related gene (hERG) potassium channel (Q12809 whole entry, looked up): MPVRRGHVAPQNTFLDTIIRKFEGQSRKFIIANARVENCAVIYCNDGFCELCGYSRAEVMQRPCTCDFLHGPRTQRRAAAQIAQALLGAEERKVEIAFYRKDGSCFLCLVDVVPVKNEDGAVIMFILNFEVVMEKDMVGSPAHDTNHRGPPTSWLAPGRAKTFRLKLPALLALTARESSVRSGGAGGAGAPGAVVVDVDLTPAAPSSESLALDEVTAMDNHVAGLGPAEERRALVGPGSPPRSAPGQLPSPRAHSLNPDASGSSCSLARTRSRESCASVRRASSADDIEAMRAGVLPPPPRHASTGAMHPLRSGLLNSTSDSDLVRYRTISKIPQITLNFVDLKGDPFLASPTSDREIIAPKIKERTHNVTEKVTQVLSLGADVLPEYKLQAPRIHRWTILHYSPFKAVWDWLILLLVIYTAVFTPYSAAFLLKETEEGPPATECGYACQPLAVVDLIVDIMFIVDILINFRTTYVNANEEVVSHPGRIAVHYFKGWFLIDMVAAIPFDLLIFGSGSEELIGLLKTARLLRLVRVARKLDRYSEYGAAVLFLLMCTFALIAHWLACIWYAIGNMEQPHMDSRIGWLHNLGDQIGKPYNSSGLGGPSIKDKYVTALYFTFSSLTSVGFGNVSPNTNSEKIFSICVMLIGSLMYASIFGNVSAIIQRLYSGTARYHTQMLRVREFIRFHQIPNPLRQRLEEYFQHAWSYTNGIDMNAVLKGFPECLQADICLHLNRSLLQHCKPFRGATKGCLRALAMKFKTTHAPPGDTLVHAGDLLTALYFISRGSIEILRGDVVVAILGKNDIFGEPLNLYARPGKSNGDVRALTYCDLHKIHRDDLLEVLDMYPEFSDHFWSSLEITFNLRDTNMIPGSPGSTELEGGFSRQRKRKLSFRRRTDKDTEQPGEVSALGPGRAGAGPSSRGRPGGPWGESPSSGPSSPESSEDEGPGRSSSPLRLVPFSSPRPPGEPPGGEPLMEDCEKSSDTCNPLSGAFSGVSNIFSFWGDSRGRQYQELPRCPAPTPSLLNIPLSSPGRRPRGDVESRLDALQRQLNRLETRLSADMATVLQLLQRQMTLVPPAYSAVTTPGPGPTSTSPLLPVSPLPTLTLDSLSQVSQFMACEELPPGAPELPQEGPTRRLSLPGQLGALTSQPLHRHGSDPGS

Structure (SMILES) | hERG current change (%, negative = inhibition) at 10uM [%]
COc1ccccc1N1C(=O)NC(=O)/C(=C/c2ccc([N+](=O)[O-])s2)C1=O | 14.5
CN(Cc1nccn1C)C(=O)c1ccc2nc(Cc3ccccc3F)oc2c1 | -6.92
COc1ccc(-c2ccc(NS(=O)(=O)c3ccc([N+](=O)[O-])cc3)cc2)nn1 | -10.9
CCOC(=O)c1ccc(-n2c(=O)[nH]c3ccccc3c2=O)cc1 | 8.24
COCCn1c(SCC(=O)Nc2cc(C)cc(C)c2)nnc1C(C)C | -8.18
O=C1CC(c2ccccc2)CC(O)=C1C=Nc1cccc(Cl)c1 (stereo not drawn) | 1.88
CC(C)CNS(=O)(=O)c1ccc(C(=O)Nc2ccc3c(c2)OCO3)cc1 | -4.52
Cc1cccc(NC(=O)CCCN2C(=O)C(c3ccccc3)Oc3cccnc32)c1C (stereo not drawn) | 15.8
CC(C)CCNC(=S)NC1CCCC1 | 11
COc1ccccc1OCCCCNC(C)(C)C | -5.44
O=c1c2ccccc2nc(-c2ccc(Cl)cc2Cl)n1O | -4.8
O=c1[nH]c2cccnc2n(CCNc2ncc(C(F)(F)F)cc2Cl)c1=O | -12.1
COc1ccc(Cc2nnc(SCC(=O)NCCc3ccccc3)o2)cc1 | -7.79
COc1cccc(/C=N/NC(=O)c2ccoc2C)c1 | 7.5
O=C(Oc1ccc(Br)cc1C(=S)N1CCCC1)c1ccccc1Cl | 14.7
COc1ccc(/C(C)=N/NC(=O)Cc2c(C)nc(C)[nH]c2=O)cc1 | -0.148
Cc1ccc(-c2nc3ncccc3n2O)cc1 | 12.2
Cc1ccccc1N1CCN(Cc2c[nH]c3ccccc23)CC1 | -62.1
COc1cc(C(=O)N[C@@H](Cc2c[nH]c3ccccc23)C(=O)O)cc(OC)c1OC | -53.1
COc1ccc(S(=O)(=O)NCc2cccnc2)cc1C(=O)N1CCCCC1 | 10.5
COc1ccc(NS(=O)(=O)c2cccc(C(=O)NCc3ccccc3CN3CCCC3)c2)cc1 | -64.4

Structure (SMILES) | hERG current change (%, negative = inhibition) at 10uM [%]
Cc1cn(C2OC[C@@H](O)[C@@H]2CO)c(=O)[nH]c1=O (stereo partly drawn) | 12.3
CCOC(=O)c1cccc(Nc2ncnc3ccc(C)cc23)c1 | -59.3
O=C(O)CNC(=O)c1nc(-c2ccccc2)n(-c2ccccc2)n1 | 22.9
O=C(NCc1ccc(F)cc1)C1C2C=CC3(CN(Cc4cccnc4)C(=O)C13)O2 (stereo not drawn) | 3.59
CCc1ccc(NC(=O)[C@H](C)NC(=O)C2CCN(C(=O)[C@@H](N)CC(C)C)CC2)cc1.Cl | 11
CSc1cccc(NC(=O)Nc2ccc(Cl)cc2)c1 | -11
O=C(COc1ccc(S(=O)(=O)N2CCOCC2)cc1Cl)NCc1ccccn1 | 7.96
C#CCOCCOCCOCCNc1nc(N2CCN(C(=O)CCCCCCCCCCNC(=O)[C@@H](CCC(=O)O)n3cc(CCCCCN)nn3)CC2)nc(N2CCN(C(=O)CCCCCCCCCCNC(=O)[C@@H](CCC(=O)O)n3cc(CCCCCN)nn3)CC2)n1 | -9.3
Nc1nc2ccc([N+](=O)[O-])c(N)c2s1 | -21
O=C(O)c1cn2c3c(ccc(Cl)c3c1=O)OCC2 | 10.9
O=C(Cc1cccc2ccccc12)Nc1ccccc1Br | 18.9
CNS(=O)(=O)c1cccc(C(=O)NCC2CCCCC2)c1 | 20.4
Cc1cc(=O)oc2cc(OCC(=O)N3CCN(c4ccccc4)CC3)c(Cl)cc12 | 16.6
COc1ccc(C2NC(=O)NC(C)=C2[N+](=O)[O-])cc1OC (stereo not drawn) | -5.73
Cc1ccc(CCCNC(=O)C2CCC(=O)N(Cc3cccc(F)c3)C2)cc1 (stereo not drawn) | -53.4
COc1ccc([C@H]2CC(=O)C=C(c3ccc(C)cc3)C2)cc1 | 7.22
Cc1cc(NS(=O)(=O)c2ccc(NC(=O)Nc3cccc(C(F)(F)F)c3)cc2)no1 | 17.3
O=C(Cc1cc(C(=O)O)c2ccccc2n1)Nc1ccccc1 | 28.6
COc1ccc2ccccc2c1CN1CCN(C)CC1 | -8.69
CN(C)c1ccc(NC(=O)CN2C(=O)CC(c3ccccc3)=Nc3ccccc32)cc1 | 5.99
Cc1ccc(S(=O)(=O)Nc2ccc(Br)cc2/C=N/n2cnnc2)cc1 | -4.21

Structure (SMILES) | hERG current change (%, negative = inhibition) at 10uM [%]
O=C(CC1C(=O)NCCN1Cc1cccc(Oc2ccccc2)c1)NCCc1ccncc1 (stereo not drawn) | -22.1
O=C1CCCC2C3CCCN4CCCC(CN12)C34 (stereo not drawn) | 16.3
CCOc1ccc(NC(=O)N[C@@H](Cc2ccccc2)C(=O)O)cc1 | 22.6
Cc1ccc2[nH]c(CSc3ccccc3)cc(=O)c2c1 | 14.2
O=C(O)C(=O)O.OC(CNCCc1ccc(C(F)(F)F)cc1)COC(c1ccccc1)c1ccccc1 (stereo not drawn) | -34.7
Cc1ccc(N/C=C2\C(=O)N(c3ccc(F)cc3F)C(c3cccnc3)S2(=O)=O)cc1 (stereo not drawn) | 1.37
CCOc1ccc(CCNC(=O)C2CCN(c3nn4c(=O)cc(C)nc4s3)CC2)cc1OCC | -8.23
Cc1ccc(-n2nc3c(c2NC(=O)c2cccs2)CS(=O)(=O)C3)cc1C | -47.7
CN(Cc1cn(C)nc1-c1ccc(Oc2ccccc2)cc1)Cc1cnc2ccccn12 | -54
CC(=O)Nc1ccc(NC(=O)C(C)OC(=O)CNC(=O)c2cccs2)cc1 (stereo not drawn) | 15.3
O=C(/C=C/c1ccc(S(=O)(=O)NCc2ccco2)cc1)N1CCN(c2ccccc2)CC1 | 7.23
CCOc1ccc(CCNC(=O)COC(=O)C2=NNC(=O)CC2)cc1OCC | 2.49
Cn1cccc1C(=S)N=P(C1CCCCC1)(N1CCOCC1)N1CCOCC1 | -0.0981
O=c1c2ccccc2n2c(-c3ccc(F)cc3)nnc2n1Cc1ccccc1 | -2.47
Cc1cc(=O)[nH]c(CN2CCC(c3ccccc3)CC2)n1 | 4.66
CC(=O)Nc1ccc(S(=O)(=O)NC(CC(=O)N(C)Cc2ccccc2)C(C)C)cc1 (stereo not drawn) | 15.2
COc1ccccc1NC(=O)c1ccc(NC(=O)CN2CCN(C(=O)c3ccco3)CC2)cc1 | -72.9
O=C(c1ccco1)N1CCN(Cc2cccc(C(F)(F)F)c2)CC1 | -5.15
Cc1nnc(SCC(=O)NCc2ccco2)n1Cc1ccccc1 | 3.79
COc1ccccc1-c1ccc(SCC(=O)Nc2cc(C)on2)nn1 | -17.6
COc1ccccc1Oc1ccc(N/C=C/C(=O)C(C)(C)C)cc1 | 6.81

Structure (SMILES) | hERG current change (%, negative = inhibition) at 10uM [%]
CCCCN(CC)S(=O)(=O)c1ccc(C(=O)Nc2nnc(-c3ccccc3Cl)o2)cc1 | 8.39
O=c1c2ccccc2c(-c2ccccc2)nn1-c1cc(Cl)cc(Cl)c1 | 9.33
CS(=O)(=O)N(CC(=O)Nc1cccc([N+](=O)[O-])c1)c1ccccc1 | 7.7
Cc1ccc(C(=O)Nc2ccc(CC(=O)O)cc2)o1 | -11.6
CN(C)Cc1c(C(=O)N/N=C/c2cccc3ccccc23)nnn1-c1nonc1N | -2.53
Cc1cc(C(=O)CSc2nc(N)cc(N)n2)c(C)n1-c1cccc(C(F)(F)F)c1 | -64.4
Cc1ccc(O)c(NC(=O)C2CCCCC2)c1 | 10.5
NC(=O)[C@H]1CC2(CC(c3cccc(NC(=O)[C@H]4CCC(=O)N4)c3)=NO2)CN1C(=O)c1cc([N+](=O)[O-])cc([N+](=O)[O-])c1 (stereo partly drawn) | -3.7
O=C(CS(=O)CC(=O)N(c1ccccc1)C(C(=O)NC1CCCC1)c1cccs1)Nc1ccc(F)cc1 (stereo not drawn) | -3.4
CCCCSc1nc(C)cc(NC(=S)Nc2ccc(OC)cc2)n1 | -25.4
C=CCn1c(SCc2ccc(C(=O)NCCO)cc2)nc2sc(C)c(C)c2c1=O | -61.6
S=c1[nH]nc(-c2cc(-c3ccccn3)nc3ccccc23)o1 | 12.9
CC(NC(=O)c1ccc(CS(=O)(=O)Cc2ccccc2F)o1)c1ccc2c(c1)OCCO2 (stereo not drawn) | -43.3
CCC(CC)C(=O)Nc1c2c(nn1-c1ccc(OC)cc1)CS(=O)C2 (stereo not drawn) | 3.83
CCCS(=O)(=O)c1c(S(=O)(=O)CCC)c2c3ccccc3ccn2c1C(=O)OC | 9.96
O=C(Nc1nccs1)c1cccc2ccccc12 | -1.6
Cc1c(C(=O)Nc2ccc(C(F)(F)F)cc2)sc2ncn(CC(=O)N3CCN(c4ccccn4)CC3)c(=O)c12 | 16.4
COc1ccc(C(=O)Nc2ccc(-c3cn4ccsc4n3)cc2)cc1S(=O)(=O)N1CCOCC1 | -9.6
Cc1cccc(C(=O)Nc2cc(OCc3cccc(F)c3)c(Cl)cc2Cl)c1 | -7.87
CSc1ccccc1C(=O)C1CCCN(Cc2ccccn2)C1 (stereo not drawn) | -12.6
COc1cccc(-n2c(SCC#N)nnc2-c2cnccn2)c1 | -9.76
